Assay results as given in PubChem BioAssay AID686978 (National Center for Advancing Translational Sciences (NCATS), 2013).
In all, about 420,000 compounds went through this assay and about 64,000 (15%) were called active. The shares of active, inactive and inconclusive entries below differ from those in the screen. The call rests on the fitted dose curve; in most records, active means well fitted inhibition curve with a large enough effect; inconclusive means small, poorly fitted or top-dose-only effect; inactive means flat fitted curve, though single readings scatter. Potencies of inconclusive entries are left out as doubtful fits.

Experiment: qHTS for Inhibitors of human tyrosyl-DNA phosphodiesterase 1 (TDP1): qHTS in cells in absence of CPT; further: nearly all actives have a fitted effect of over 55% in size
Conditions: DT40 Tdp1-/- hTDP1 cells, no CPT, ATP luminescence, 48 h; activity change, negative = growth inhibition: at 46.2 µM (top of the series) unless noted
How it was run: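 Growth kinetics read by CellTiter-Glo luminescence after ≥48 hr at 37 °C. Cells: DT40 Tdp1-/- stably carrying human TDP1, 400 per well, compound exposure in the absence of CPT (DMSO vehicle).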
On the % scale 0 is the no-effect control and ±100 the full control effect; potency means the concentration at half of the fitted maximal effect; tags describe the fitted curve by direction and shape.

Structure (SMILES)	Potency	activity change, negative = growth inhibition
CCN(c1ccccc1)S(=O)(=O)c1ccc(C(=O)N2CCCC(C(F)(F)F)C2)cc1 (stereo not given)	active: 23.1 µM	–
Clc1cccc(-c2cc3nc4c(c(N5CCN(c6cnccn6)CC5)n3n2)CCCC4)c1	inconclusive [inhibitor, partial curve, poor fit]	–
Cc1nc2ccc(N=NN(C)C)cc2[nH]1	–	inactive: 4.05%
Cc1ccccc1C(=O)Nc1cccc(C(=O)Nc2ccccc2C(=O)O)c1	–	inactive: 1.22%
NC(=O)c1ccc(/C(N)=N/S(=O)(=O)c2cc(C(F)(F)F)cc(C(F)(F)F)c2)cc1	inconclusive [inhibitor, partial curve]	–
CCn1c(C)c(C(C)=O)c(N2CCN(c3cccc(Cl)c3)CC2)nc1=S	inconclusive [inhibitor, single point]	–
Cc1cccc(NC(=O)c2sc3nc(N)c(C#N)cc3c2N)c1	inconclusive [inhibitor, single point]	–
Cc1ccc(C)c(S(=O)(=O)Nc2ccc(C(=O)N3CCC3)cc2)c1	inconclusive [inhibitor, single point]	–
Cc1cc(C)nc(N2CCC(C(=O)NCCc3ccc(F)cc3)CC2)n1	active: 9.2 µM	–
COc1ccc(OC)c(CNC(=O)C2CCCN(S(=O)(=O)N3CCC(C)CC3)C2)c1 (stereo not given)	inconclusive [inhibitor, partial curve]	–
CC(CCc1ccccc1)NC(=O)C1CCN(S(=O)(=O)N2CCOCC2)CC1 (stereo not given)	inconclusive [inhibitor, single point]	–
COc1ccc(OC)c(C(=O)CSc2nnc(Cc3cccs3)n2C)c1	–	inactive: -7.11%
Cc1ccc2nc(/C=C/c3ccc(N(C)C)cc3)ccc2c1	active: 12.6 µM	–
O=C(NCc1ccco1)N1c2ccccc2Sc2ccccc21	–	inconclusive: -32.2% [inhibitor]
Cc1ccc(S(=O)(=O)N2C3CCCCC3O[C@H]2CC(=O)c2cccc3ccccc23)cc1 (stereo not given in full)	inconclusive [inhibitor, single point]	–
O=C(Nc1ccccc1C(=O)NCCN1CCOCC1)c1cccc([N+](=O)[O-])c1	inconclusive [inhibitor, full curve, poor fit]	–
COc1ccc(-n2c(CNC(=O)c3cc(OC)c(OC)c(OC)c3)n[nH]c2=S)cc1	–	inactive: -13%
Cc1sc(NC(=O)c2ccco2)c(CN2CCN(Cc3ccccc3)CC2)c1C	active: 11.6 µM	–
COc1ccc(-c2csc(NC(=O)CS(=O)(=O)c3ccc(F)cc3)n2)cc1OC	inconclusive [inhibitor, single point]	–
CCC(CC)C(=O)Nc1cccc(C(=O)Nc2nccs2)c1	active: 23.1 µM	–
CC(C)NC(=O)C1(C)CCN1C(=O)c1ccccc1Oc1ccccc1 (stereo not given)	–	inactive: -22.2%
Cc1ccc(-c2nc3ccc(C)cn3c2Cc2cccc(Cl)c2)cc1	inconclusive [inhibitor, single point]	–
CCCCCn1c(CCNC(=O)c2cccc(C)c2)nc2ccccc21	active: 18.4 µM	–
CN(C)c1nc(N/N=C/c2c[nH]c3ccccc23)nc(N2CCOCC2)n1	inconclusive [inhibitor, partial curve, poor fit]	–

Structure (SMILES)	Potency	activity change, negative = growth inhibition
O=C(CNC(=O)c1ccc(S(=O)(=O)N2CCCC2)cc1)N/N=C/c1ccc(Cl)cc1Cl	inconclusive [inhibitor, single point]	–
O=C(Nc1cc(-c2ccccc2)[nH]n1)c1ccccc1F	inconclusive [inhibitor, single point]	–
Cc1ccc([C@H]2C[C@@H](O)[C@H](n3cc(-c4ccc(F)cc4)nn3)CN2C(=O)C2CCCCC2)cc1	active: 23.1 µM	–
COc1ccc(-c2csc(C(C)(NC(C)=O)c3ccccc3)n2)cc1 (stereo not given)	active: 16.4 µM	–
C/C(=N\NC(=O)COc1ccccc1[N+](=O)[O-])c1cccs1	inconclusive [inhibitor, single point]	–
CCOC(=O)N1CCC(NC(=O)c2cc(-c3ccc(F)cc3)[nH]c2C)CC1	inconclusive [inhibitor, single point]	–
CCn1nc(C)c(CNCc2cn[nH]c2-c2cc3ccccc3o2)c1C	–	inactive: -25.7%
COCCOC(=O)c1[nH]c2c(c1C)C(=O)CC(c1ccco1)C2 (stereo not given)	active: 0.731 µM	–
N#CC(C#N)=C/C(C#N)=C(/N)N1CCN(c2ccc(Cl)cc2)CC1	inconclusive [inhibitor, single point]	–
Cc1cc(=O)oc2cc(NC(=O)COc3cccc(C(F)(F)F)c3)ccc12	inconclusive [inhibitor, full curve]	–
O=C(c1ccccc1)N(Nc1ccccc1)c1ccccc1	inconclusive [inhibitor, single point]	–
CCSc1nc2c([nH]c3ccccc32)c(=O)n1-c1ccc(F)cc1	inconclusive [inhibitor, partial curve]	–
CCc1ccc(CNC(=O)C2CCCN(S(=O)(=O)c3ccc4c(ccn4C)c3)C2)cc1 (stereo not given)	active: 14.6 µM	–
CCCCNC(=S)N/N=C/c1sccc1C	active: 1.46 µM	–
CC(=O)N1c2ccc(S(=O)(=O)N3CCC(C(=O)Nc4cccc(Cl)c4)CC3)cc2CC1C (stereo not given)	active: 2.06 µM	–
COc1ccc(NC(=O)c2ccc(NC(=O)CN3CCC(C(N)=O)CC3)cc2)cc1	–	inactive: -4.22%
O=C1Cc2ccccc2C(=O)N1Cc1ccccc1	inconclusive [inhibitor, partial curve, poor fit]	–
COc1ccc(CNC(=O)COC(=O)[C@H](Cc2c[nH]c3ccccc23)NC(=O)c2cccs2)cc1	inconclusive [inhibitor, single point]	–
COc1ccc(/C=N/N=C2\SC(CC(=O)O)C(=O)N2c2ccccc2)cc1 (stereo not given)	–	inactive: -13%
COc1ccc(C(=O)NC2CCN(C(=O)Nc3ccccc3Cl)CC2)cc1	–	inactive: -23%
O=C(C1COc2ccccc2O1)N1CCN(c2ccccc2F)CC1 (stereo not given)	inconclusive [inhibitor, single point]	–
CCCCOc1ccc(CNC(=O)c2ccc3c(c2)N(C)C(=O)C2CCCCN32)cc1 (stereo not given)	inconclusive [inhibitor, single point]	–
COc1ccc(CSCC(=O)Nc2ccc(S(=O)(=O)N3CCCCCC3)cc2)cc1	inconclusive [inhibitor, single point]	–
CC(=O)NCCNc1cc(-c2ccccc2C(F)(F)F)ncn1	–	inactive: 7.77%

Structure (SMILES)	Potency	activity change, negative = growth inhibition
COc1ccc(C(=O)Nc2nccs2)cc1[N+](=O)[O-]	–	inactive: 1.54%
Cc1ccc(-c2cnc3c(c2)C(=O)N([C@H](C)CO)C[C@H](C)[C@@H](CN(C)Cc2ccccc2F)O3)cc1	inconclusive [inhibitor, single point]	–
Cc1cc(=O)oc2c(C(=O)/C=C\c3cccs3)c(O)ccc12	inconclusive [inhibitor, single point]	–
O=C(Cn1c(Cn2c(-c3cnccn3)nc3ccccc32)nc2ccccc21)c1ccc(OC(F)(F)F)cc1	inconclusive [inhibitor, single point]	–
O=C(c1ccncc1)N1CCN(S(=O)(=O)c2cccc([N+](=O)[O-])c2)CC1	–	inactive: 2.95%
COc1ccc(CN(CC(=O)NCc2ccc(F)cc2)C(=O)CCC(=O)Nc2nccs2)cc1	inconclusive [inhibitor, single point]	–
CCCCNC(=S)N(C)/N=C/c1ccc(F)cc1	inconclusive [inhibitor, single point]	–
Cc1ccc(OCCSc2nc3ccc(NC(=O)c4ccc(F)cc4)cc3s2)cc1	inconclusive [inhibitor, partial curve]	–
COCCn1c(=NC(=O)C2COc3ccccc3O2)sc2cc(S(N)(=O)=O)ccc21 (stereo not given)	inconclusive [inhibitor, single point]	–
Clc1cccc(CNc2ccn3nc(-c4ccccc4Cl)cc3n2)c1	inconclusive [inhibitor, single point]	–
Cc1nc2ccccn2c1C(=O)N/N=C/c1cc(C)n(-c2ccc(Br)cc2)c1C	active: 20.6 µM	–
Cc1cc(C)c2c(N)c(C(=O)N/N=C/c3cccnc3)sc2n1	inconclusive [inhibitor, single point]	–
Cc1ccc(C)c(NS(=O)(=O)c2ccc(OCC(=O)NCc3ccco3)cc2)c1	active: 23.1 µM	–
Cc1ccc(S(=O)(=O)N2CCOCC2)cc1C(=O)NC(C)CCc1ccccc1 (stereo not given)	inconclusive [inhibitor, single point]	–
Cc1ccc(NC(=O)C2C3/C=C\CCCCC32)cc1 (stereo not given)	–	inconclusive: -32.6% [inhibitor]
Cc1cccc(C(C)C)c1NC(=O)C(NS(=O)(=O)c1cccc2nsnc12)c1ccccc1 (stereo not given)	inconclusive [inhibitor, partial curve]	–
c1ccc(C2=Nn3c(nnc3-c3ccncc3)SC2)cc1	inconclusive [inhibitor, partial curve]	–
COc1cc(C(=O)N2CCN(C/C=C/c3ccccc3)CC2)cc(OC)c1OC	–	inactive: -27.3%
CC(C)C(=O)Nc1cccc(-c2cnc3ccccc3n2)c1	–	inactive: -24.4%
CC(Oc1ccccc1)C(=O)Nc1ccc(S(=O)(=O)N2CCCC2)cc1 (stereo not given)	inconclusive [inhibitor, partial curve]	–
Cc1cccc(-n2ncc3c(NC(C)C)ncnc32)c1	inconclusive [inhibitor, single point]	–
COc1ccc(CNC(=S)Nc2ccccc2)cc1Cl	–	inactive: -9.57%
